Hit rate of the full screen: of about 150,000 compounds, about 540 (0.36%) showed an effect of 50% or more. The list shows a part of the results.

This test has as its system Plasmodium falciparum. Nature of the test: Primary screen in NF54 nanoGlo assay, in single point, at 2uM, 72h; a lower Z score goes with more inhibition. The format is functional, Erythrocyte. The following applies: timepoint 72 hour.
One may read the % Inhibition as the drop in the measured response relative to a control, in per cent. For `Cn1cc(C(=O)N[C@@H](Cn2cccn2)c2ccccc2)ccc1=O`, the “% Inhibition” value came out at 1% and the Z score is -0.18.
Consider `Cc1ccc(C(C)NC(=O)NCC2CCC(O)C2)cc1F` (stereo not drawn), for which the “% Inhibition” value is -5% and the Z score was 0.74.
The like results for `Cc1ccc(-c2ncc[nH]2)cc1NC(=O)[C@]1(C)CCCNC1=O` were, in that order, -15% and 2.34.
`Cc1ccccc1Oc1nc(N2CCCC2)nc2c1CN(Cc1ccncc1)CC2`: the “% Inhibition” value was -9% and the Z score is 1.
As for `CCc1oc(C(=O)NCCOc2nonc2C)cc1CN1CCCC1`, the “% Inhibition” value was determined as 10% and the Z score is -1.33.
In the case of `COc1cccc(OCc2nc(-c3cnn[nH]3)n(CCO)n2)c1`, the “% Inhibition” value stood at 2% and the Z score is listed as -0.2.
On the same counts, the results for `CCC(=O)N(CCOC)Cc1cc(NC(=O)C2CCC2)ccc1N(C)C` are -8% and 1.16.
As to `CC(C)(C)[C@@H]1NC(=O)N(Cc2cc(Br)c3c(c2)OCCO3)C1=O`, the “% Inhibition” value amounted to 3% and the Z score is on record as -0.53.
As to `C[C@H]1Cc2ccccc2N1C(=O)Cn1cc(C(=O)c2ccco2)c2ccccc21`, the “% Inhibition” value is reported as -35% and the Z score came out at 4.1.
In the case of `CC(C)c1cc([C@@H]2CCCN2C(=O)NCc2ccccc2)on1`, the “% Inhibition” value is listed as 0% and the Z score was 0.03.
On the same counts, the results for `O=S(=O)(c1ccc(Cl)c(Cl)c1)N1CC(n2ccnn2)C1` are -16% and 2.99.
On the same counts, the results for `C=CCN1CCC[C@H]1C(=O)N1CCC(COC(C)C)CC1` are -4% and 0.78.
The like results for `Cc1c[nH]c(CN(C)C(=O)c2c(C)noc2C)n1` were, in that order, -9% and 1.79.
`Cc1ccc(O[C@H]2CCCN(C(=O)Cc3cccnc3)C2)nn1`: the “% Inhibition” value was found to be 2% and the Z score is recorded as -0.4.
The like results for `Brc1cncc(N[C@H]2CCC3(C2)OCCO3)c1` were, in that order, -3% and 0.38.
On the same counts, the results for `Cc1ccc(CC(=O)Nc2nnc(C3CC3)s2)cc1` are -17% and 2.71.
The like results for `CCn1cc(OCc2nc(-c3ccsc3)no2)cn1` were, in that order, -10% and 1.33.
As to `O=C(CNCC1CC1)Nc1cccc(Cl)c1`, the “% Inhibition” value is given as -4% and the Z score stood at 0.39.
Consider `Cc1nc2cc(NC(=O)c3ccc[n+]([O-])c3)ccc2o1`, for which the “% Inhibition” value is -3% and the Z score is reported as 0.45.
On the same counts, the results for `O=C1C[C@H](c2ncnn2Cc2ccc(F)cc2)CN1Cc1ccncc1` are -3% and 0.46.
`CO[C@@H](Cn1ccnc1-c1ccnc2ccccc12)c1cccs1`: the “% Inhibition” value is recorded as 3% and the Z score is recorded as -0.57.
On the same counts, the results for `C[C@H]1CCCN(S(=O)(=O)NCCc2ccc3c(c2)OCCO3)C1` are -2% and 0.22.
On the same counts, the results for `CCc1nc(CN(C)C(=O)c2cncc(F)c2)no1` are 9% and -1.34.
For the compound `Cc1cnc(N2C[C@H](C3CC3)[C@@H](N)C2)nc1N(C)C`, the “% Inhibition” value is recorded as 0% and the Z score turned out to be 0.07.
The like results for `C[C@@H](CN(C)CCO)NCc1cc2cc(Cl)ccc2[nH]1` were, in that order, -5% and 0.62.
The like results for `CCOc1cc(C(=O)NCCc2sc(C)nc2C)n[nH]1` were, in that order, -5% and 0.63.
For the compound `COc1ccc([C@@H]2CC(=O)c3cnc(N4CCCC4)nc3C2)c(OC)c1`, the “% Inhibition” value was determined as 2% and the Z score is -0.19.
The like results for `Cc1ccc(=O)n(C(C)C(=O)N2c3ccccc3CC2C)n1` (stereo not drawn) were, in that order, 10% and -1.29.
On the same counts, the results for `COCCN(Cc1c(-c2ccccc2)noc1N1CCCC1)C[C@H](O)COCc1ccccc1` are 9% and -1.06.
As to `CC(C)(C)OC(=O)N1CCOC[C@H]1c1nc(-c2cccnc2)cs1`, the “% Inhibition” value is reported as -12% and the Z score is 1.32.
`CC1CCN(C(=O)C2CCNC(=O)C2)C2CCCCC12` (stereo not drawn): the “% Inhibition” value is -2% and the Z score stood at 0.24.
Consider `Oc1cc(Cc2ccccc2)nc2c(-c3ccccc3)c(COc3ccccc3)nn12`, for which the “% Inhibition” value is -8% and the Z score came to 1.24.
Regarding `Cc1ncnc(C)c1C(=O)N(C)Cc1cscn1`, the “% Inhibition” value was -3% and the Z score is recorded as 0.5.
With `Cc1nccc(N2CCC(N3CCC[C@H](C(=O)NCc4ccccn4)C3)CC2)n1`, the “% Inhibition” value is on record as -17% and the Z score is on record as 3.21.
Consider `CC(C)(NC(=O)c1n[nH]c2c1CCCC2)c1nnc(N)s1`, for which the “% Inhibition” value is -13% and the Z score worked out at 1.8.
On the same counts, the results for `c1nc(C2CN(c3nc(C4CCOCC4)ns3)C2)ncc1C1CC1` are -9% and 1.63.
The like results for `Cc1ccc([C@H](C)NCCOc2cccnc2)s1` were, in that order, -13% and 1.32.
For `Cc1cc(CCC(=O)NCc2nc(C(C)C)cs2)[nH]n1`, the “% Inhibition” value is 0% and the Z score is -0.06.
Regarding `Cc1n[nH]c(C)c1[C@H](C)N(C)C(=O)CCCN1CCCC1=O`, the “% Inhibition” value is reported as 2% and the Z score is -0.28.
Consider `O=C(OCC(=O)N1CCCc2ccccc21)c1cccc(S(=O)(=O)N2CCCc3ccccc32)c1`, for which the “% Inhibition” value was -6% and the Z score was 0.92.
On the same counts, the results for `CN(Cc1csc(-c2ccccc2)n1)C(=O)[C@@H]1COCCO1` are -1% and 0.21.
The like results for `CN=C(NCCC1=CCOCC1)N1CC[C@H](CC(C)C)C1` were, in that order, 1% and -0.07.
On the same counts, the results for `CCCN(C)C(=O)c1coc(CN2CCN(Cc3ccccc3)CC2)n1` are 1% and -0.21.
Regarding `CN(C)C(=O)c1ccc(CN(CCO)c2ccccc2)[nH]1`, the “% Inhibition” value came to 6% and the Z score is given as -1.
On the same counts, the results for `Cn1nnc(COc2cccc(C(C)(C)C)c2)n1` are 14% and -2.7.
Take `Cc1cc(NC(=O)CS(=O)(=O)Cc2ccccc2)no1`: the “% Inhibition” value is listed as -10% and the Z score amounted to 1.85.
`C(=Cc1ccccc1)COn1cccn1`: the “% Inhibition” value was determined as 2% and the Z score is recorded as -0.32.
On the same counts, the results for `Cc1nc(C(=O)N2Cc3sccc3CC2(C)C)c[nH]1` are -10% and 1.31.
On the same counts, the results for `Cc1cc(NC(=O)C(=O)NCCCN(C)c2cccc(F)c2)n(C)n1` are 29% and -3.94.
Regarding `CS(=O)(=O)CCC(=O)NCC=Cc1ccccc1`, the “% Inhibition” value is 3% and the Z score was -0.3.
On the same counts, the results for `CC(=O)c1c(-c2cccc(-c3ccn[nH]3)c2)cnn1C` are 0% and 0.02.
In the case of `Cc1ccc(C(C)C)c(OS(=O)(=O)c2ccc3c(c2)NC(=O)CO3)c1`, the “% Inhibition” value was -13% and the Z score was found to be 2.62.
The like results for `CCCn1ncnc1[C@H](C)NC(=O)c1ccc(C)n1C(F)F` were, in that order, -16% and 1.58.
For `O=C(NCc1cccnc1-c1ccco1)c1cncc(Br)c1`, the “% Inhibition” value is listed as -13% and the Z score is 2.43.
Consider `Cc1cc(S(=O)(=O)N(C)CCC(=O)O)sc1C`, for which the “% Inhibition” value is -30% and the Z score amounted to 2.75.
The like results for `CC1=N[C@@H](C)C(=O)Nc2cccc(C)c21` were, in that order, -7% and 1.34.
For the compound `CC1CN(C(C#N)c2ccco2)CCO1` (stereo not drawn), the “% Inhibition” value was -11% and the Z score came to 1.47.
Take `CCOC(=O)N1CCC(NC(=O)[C@H]2CC23CCN(Cc2ccc(O)c(OCC)c2)CC3)CC1`: the “% Inhibition” value is given as -6% and the Z score was 0.73.
The like results for `CCN(CC)C(=O)N(C)Cc1ccccc1` were, in that order, 5% and -0.91.
Regarding `CC[C@H](C)NCC(=O)Nc1ccc(F)cc1`, the “% Inhibition” value is -36% and the Z score came out at 4.27.
Turning to `CC(C)(C)c1ccc(S(=O)(=O)Nc2cccc3c2C(=O)NC3)s1`, the “% Inhibition” value is on record as -7% and the Z score is recorded as 0.98.
The like results for `CCNC(=O)N1CC[C@H](NC(=O)c2ccc(C)c3c2CCC3)C1` were, in that order, -3% and 0.48.
The like results for `Cc1ccc(N2CCN(CCn3cnnc3)[C@@H](C)C2)cc1` were, in that order, 3% and -0.64.
As for `Cc1cc(-c2nc(C)nn2-c2ccc(F)cc2)[nH]n1`, the “% Inhibition” value is -16% and the Z score came out at 2.09.
On the same counts, the results for `N#Cc1ccccc1NC(=O)Cn1nc(C2CC2)cc1C(F)F` are -42% and 4.9.
In the case of `CC(C)CN1C[C@H](CNC(=O)c2cnn(C)c2)OCC1=O`, the “% Inhibition” value is -17% and the Z score was 2.21.
On the same counts, the results for `CC1OCCCC1C(=O)NCc1ncoc1-c1ccccc1` (stereo not drawn) are -9% and 1.56.
`Cc1oncc1NC(=O)C1CCC(F)(F)CC1`: the “% Inhibition” value is reported as -6% and the Z score is 0.73.
As to `CC1CCN(c2ncnc(Oc3ccc4c(c3)OCO4)c2N)CC1`, the “% Inhibition” value is -4% and the Z score was found to be 0.83.
Turning to `O=C(CN1CCC(N2C[C@H](COc3ccc(F)cc3)OCC2=O)CC1)NC1CC1`, the “% Inhibition” value turned out to be 0% and the Z score is listed as -0.01.
Turning to `CCOC(=O)N1CCC(Nc2cncc(Br)c2)CC1`, the “% Inhibition” value is reported as -6% and the Z score is given as 0.49.
On the same counts, the results for `Cc1cc(CNc2ncc(C(=O)N3CCCCC3)cc2Cl)cc(C)n1` are 2% and -0.35.
On the same counts, the results for `CC1CCCC(CCNS(=O)(=O)N2CC(C)OC(C)C2)C1` (stereo not drawn) are -10% and 0.87.
With `COc1cc2c(nn1)CCN(Cc1nccn1Cc1ccccc1)C2`, the “% Inhibition” value is listed as 8% and the Z score is -1.08.
On the same counts, the results for `Cc1ccccc1[C@H]1CN(C(=O)CCc2ccncc2)C[C@@H]1C(=O)O` are -12% and 1.19.
Consider `Cc1nc(-n2cnnc2)ccc1-c1cc[nH]n1`, for which the “% Inhibition” value is 0% and the Z score is on record as -0.03.
On the same counts, the results for `COc1cccc(C(=O)Nc2sc(-c3ccccc3)c(C)c2C(=O)N2CCOCC2)c1` are 0% and -0.09.
Take `O=C(Cc1cccs1)NCC[C@H](O)c1cccs1`: the “% Inhibition” value is reported as -3% and the Z score came to 0.38.
The like results for `CCn1ccnc1-c1nc2c([nH]1)C[C@H](c1cccc(OC)c1)CNC2=O` were, in that order, -9% and 1.47.
The like results for `O=C(CC1CCN(C(=O)c2cc3ccccc3[nH]2)CC1)NCc1ccc(Cl)cc1` were, in that order, 8% and -1.26.
The like results for `Cc1cc(C2CC(C(=O)NC3CC3)CN(C(=O)NC(C)C)C2)ccc1F` (stereo not drawn) were, in that order, -11% and 1.63.
Consider `C[C@H](NC(=O)c1cc(COC(C)(C)C)on1)C1CC1`, for which the “% Inhibition” value was determined as 5% and the Z score is -0.67.
Take `COc1ccc(CN2CC[C@H](c3nnc(-c4ccncc4)o3)C2)cc1`: the “% Inhibition” value was -2% and the Z score came to 0.34.
On the same counts, the results for `CCOC(=O)C1CCN(C(=O)c2c(-c3ccccc3)nnc3ccc(C)cc23)CC1` are 1% and -0.13.
On the same counts, the results for `O[C@@]1(CNc2nc3cc(F)ccc3o2)CCOC1` are 1% and -0.14.
Turning to `CN(Cc1cnn(C)c1)C(=O)C1CC(O)CN1C(=O)COc1ccccc1` (stereo not drawn), the “% Inhibition” value is recorded as 1% and the Z score is reported as -0.13.
The like results for `CO[C@@H]1CC[C@@]2(OC)CCN(C(=O)c3cccc(-c4nc[nH]n4)c3)[C@H]2C1` were, in that order, 3% and -0.37.
On the same counts, the results for `CNC(=O)c1ccc(N2CC3CC=CCC3C2)nn1` (stereo not drawn) are 12% and -1.37.
On the same counts, the results for `CS(=O)(=O)N1CCC[C@H](CN2CCN(c3ccccc3F)CC2)C1` are -18% and 2.12.

(Values after ChEMBL document CHEMBL4888484, “Replenishing the malaria drug discovery pipeline: Screening and hit evaluation of the MMV Hit Generation Library 1 (HGL1) against asexual blood stage Plasmodium falciparum ,using a nano luciferase reporter read-out” (2022).)
